{"source": "the supplement of paper PMC10126150", "note": "Sequences with one replicate were seen in a single cluster, so their values are uncertain.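 Further: ATP exposure 15 min at 22 °C before imaging.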", "data": [{"test_system": "ATP", "assay": "switch fluorescence ratio, 500 uM ATP over buffer (Cy3 cluster intensity, sum of 5 cycles each) (fold (ratio)); higher = stronger signal-on switching upon ATP binding; sequences stand for … in TCGTCGGCAGCGTCAGATGTGTATAAGAGACAGTTTTTTTTTTTTTTTTTTTTTTTTT…TC", "details": "aptamer strand: ATP DNA aptamer (quencher-CACCTGGGGGAGTATTGCGGAGGAAGG + anchor), 100 nM annealed; ATP concentration: 500 uM; one replicate", "outline": "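Cy3-labelled switching-strand clusters on a modified Illumina MiSeq flow-cell were annealed to 100 nM quencher-labelled ATP aptamer and imaged first in selection buffer, then after 15 min with 500 uM ATP at 22 °C. NaOH stripping and re-annealing separated each of five buffer/ATP cycles, and clusters outside 100-1000 RFU were excluded. The fluorescence ratio sums target-cycle Cy3 intensity over buffer-cycle Cy3 intensity per cluster and averages it per switch-domain sequence.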", "values": [{"sequence": "TAGCGTTAAT", "switch fluorescence ratio": 1.05}, {"sequence": "TAGCTAATTG", "switch fluorescence ratio": 0.969}, {"sequence": "TAGCTACGAT", "switch fluorescence ratio": 1.04}, {"sequence": "TAGCTATTCG", "switch fluorescence ratio": 0.974}, {"sequence": "TAGCTATTGA", "switch fluorescence ratio": 1.03}, {"sequence": "TAGCTCACAT", "switch fluorescence ratio": 1.01}, {"sequence": "TAGCTCGAGC", "switch fluorescence ratio": 1.01}, {"sequence": "TAGCTCGTGG", "switch fluorescence ratio": 1.07}, {"sequence": "TAGCTGAA", "switch fluorescence ratio": 0.995}, {"sequence": "TAGCTGCGAA", "switch fluorescence ratio": 1.01}, {"sequence": "TAGCTGGCTT", "switch fluorescence ratio": 0.98}, {"sequence": "TAGCTTCCCC", "switch fluorescence ratio": 1.84}, {"sequence": "TAGCTTGGAT", "switch fluorescence ratio": 0.994}, {"sequence": "TAGCTTTCAC", "switch fluorescence ratio": 1.05}, {"sequence": "TAGGAACATT", "switch fluorescence ratio": 1.03}, {"sequence": "TAGGAGTAAA", "switch fluorescence ratio": 1.04}, {"sequence": "TAGGATAGCA", "switch fluorescence ratio": 1}, {"sequence": "TAGGATTACA", "switch fluorescence ratio": 0.966}, {"sequence": "TAGGCAAGAT", "switch fluorescence ratio": 1.17}, {"sequence": "TAGGCAAGTT", "switch fluorescence ratio": 0.953}, {"sequence": "TAGGCCGAAC", "switch fluorescence ratio": 1.06}, {"sequence": "TAGGCGGCCT", "switch fluorescence ratio": 1.02}, {"sequence": "TAGGCTTAAA", "switch fluorescence ratio": 1.01}, {"sequence": "TAGGCTTTCA", "switch fluorescence ratio": 0.967}, {"sequence": "TAGGGAGGAG", "switch fluorescence ratio": 0.997}, {"sequence": "TAGGGAGGTC", "switch fluorescence ratio": 1.02}, {"sequence": "TAGGGATTTA", "switch fluorescence ratio": 0.963}, {"sequence": "TAGGGCGCG", "switch fluorescence ratio": 0.949}, {"sequence": "TAGGGGACGA", "switch fluorescence ratio": 1}, {"sequence": "TAGGGGCGGT", "switch fluorescence ratio": 0.977}, {"sequence": "TAGGGGTCCG", "switch fluorescence ratio": 1.04}, {"sequence": "TAGGGGTGCT", "switch fluorescence ratio": 0.993}, {"sequence": "TAGGGGTTTA", "switch fluorescence ratio": 0.977}, {"sequence": "TAGGGTAGTA", "switch fluorescence ratio": 1.01}, {"sequence": "TAGGGTCTAA", "switch fluorescence ratio": 0.951}, {"sequence": "TAGGGTGTCC", "switch fluorescence ratio": 0.973}, {"sequence": "TAGGGTGTGA", "switch fluorescence ratio": 0.963}, {"sequence": "TAGGGTTATT", "switch fluorescence ratio": 1.02}, {"sequence": "TAGGGTTTGA", "switch fluorescence ratio": 0.998}, {"sequence": "TAGGTACCCA", "switch fluorescence ratio": 1.02}, {"sequence": "TAGGTAGCGT", "switch fluorescence ratio": 0.947}, {"sequence": "TAGGTCACAA", "switch fluorescence ratio": 0.99}, {"sequence": "TAGGTCGACA", "switch fluorescence ratio": 0.999}, {"sequence": "TAGGTCGTCA", "switch fluorescence ratio": 1.02}, {"sequence": "TAGGTGACAG", "switch fluorescence ratio": 1}, {"sequence": "TAGGTGGCCA", "switch fluorescence ratio": 0.992}, {"sequence": "TAGGTGTCTA", "switch fluorescence ratio": 0.987}, {"sequence": "TAGGTTAGAG", "switch fluorescence ratio": 0.958}, {"sequence": "TAGGTTCATA", "switch fluorescence ratio": 0.979}, {"sequence": "TAGTAAAAAG", "switch fluorescence ratio": 0.987}, {"sequence": "TAGTAAGAGC", "switch fluorescence ratio": 0.967}, {"sequence": "TAGTAAGTAC", "switch fluorescence ratio": 1.46}, {"sequence": "TAGTAGGGTA", "switch fluorescence ratio": 0.988}, {"sequence": "TAGTAGTAAG", "switch fluorescence ratio": 1.03}, {"sequence": "TAGTATACAC", "switch fluorescence ratio": 1.01}, {"sequence": "TAGTATGTAT", "switch fluorescence ratio": 0.966}, {"sequence": "TAGTATTATC", "switch fluorescence ratio": 1.04}, {"sequence": "TAGTCCGGTC", "switch fluorescence ratio": 1.01}, {"sequence": "TAGTCCGTAT", "switch fluorescence ratio": 1.02}, {"sequence": "TAGTCCGTCG", "switch fluorescence ratio": 1.12}, {"sequence": "TAGTCGCTC", "switch fluorescence ratio": 0.99}, {"sequence": "TAGTCTCAGA", "switch fluorescence ratio": 1.01}, {"sequence": "TAGTCTTAAA", "switch fluorescence ratio": 1.02}, {"sequence": "TAGTCTTATT", "switch fluorescence ratio": 0.976}, {"sequence": "TAGTGAAGC", "switch fluorescence ratio": 0.971}, {"sequence": "TAGTGATGAA", "switch fluorescence ratio": 1.03}, {"sequence": "TAGTGATGCA", "switch fluorescence ratio": 0.902}, {"sequence": "TAGTGCCCCT", "switch fluorescence ratio": 1.03}, {"sequence": "TAGTGCT", "switch fluorescence ratio": 0.953}, {"sequence": "TAGTGCTTC", "switch fluorescence ratio": 1.05}, {"sequence": "TAGTGGCCTT", "switch fluorescence ratio": 0.953}, {"sequence": "TAGTGTAT", "switch fluorescence ratio": 1.05}, {"sequence": "TAGTGTATC", "switch fluorescence ratio": 0.994}, {"sequence": "TAGTGTCCA", "switch fluorescence ratio": 1.02}, {"sequence": "TAGTGTGCGC", "switch fluorescence ratio": 1.03}, {"sequence": "TAGTGTTGTT", "switch fluorescence ratio": 0.945}, {"sequence": "TAGTTAAAAA", "switch fluorescence ratio": 0.992}, {"sequence": "TAGTTAAGTT", "switch fluorescence ratio": 1.16}, {"sequence": "TAGTTAGCTG", "switch fluorescence ratio": 1.06}, {"sequence": "TAGTTCATAA", "switch fluorescence ratio": 0.985}, {"sequence": "TAGTTCGACG", "switch fluorescence ratio": 0.972}, {"sequence": "TAGTTGGTAG", "switch fluorescence ratio": 1.01}, {"sequence": "TAGTTGTGGC", "switch fluorescence ratio": 0.988}, {"sequence": "TATAAAGATT", "switch fluorescence ratio": 1}, {"sequence": "TATAAAGCTG", "switch fluorescence ratio": 0.927}, {"sequence": "TATAAGCATG", "switch fluorescence ratio": 0.991}, {"sequence": "TATAAGCGGT", "switch fluorescence ratio": 0.969}, {"sequence": "TATAAGGCGT", "switch fluorescence ratio": 0.982}, {"sequence": "TATAATATGG", "switch fluorescence ratio": 1}, {"sequence": "TATAATCGCG", "switch fluorescence ratio": 0.985}, {"sequence": "TATAATTAGT", "switch fluorescence ratio": 0.985}, {"sequence": "TATACAAGGT", "switch fluorescence ratio": 1.03}, {"sequence": "TATACAGGGT", "switch fluorescence ratio": 1}, {"sequence": "TATACCAGGA", "switch fluorescence ratio": 1.07}, {"sequence": "TATACCCATC", "switch fluorescence ratio": 1.09}, {"sequence": "TATACGGGTA", "switch fluorescence ratio": 1.03}, {"sequence": "TATAGAAAAA", "switch fluorescence ratio": 0.901}, {"sequence": "TATAGAAAC", "switch fluorescence ratio": 0.979}, {"sequence": "TATAGACAAA", "switch fluorescence ratio": 1.01}, {"sequence": "TATAGACAGA", "switch fluorescence ratio": 0.994}, {"sequence": "TATAGAGCG", "switch fluorescence ratio": 1.01}, {"sequence": "TATAGCACGC", "switch fluorescence ratio": 1.06}, {"sequence": "TATAGCTATT", "switch fluorescence ratio": 1.01}, {"sequence": "TATAGTCGGT", "switch fluorescence ratio": 0.988}, {"sequence": "TATAGTGGTG", "switch fluorescence ratio": 0.936}, {"sequence": "TATATAA", "switch fluorescence ratio": 1.01}, {"sequence": "TATATAAAAA", "switch fluorescence ratio": 1.05}, {"sequence": "TATATAGGCT", "switch fluorescence ratio": 1.03}, {"sequence": "TATATCTGAA", "switch fluorescence ratio": 0.977}, {"sequence": "TATATCTGGG", "switch fluorescence ratio": 0.967}, {"sequence": "TATCAAAGT", "switch fluorescence ratio": 1.03}, {"sequence": "TATCAATCCG", "switch fluorescence ratio": 1.03}, {"sequence": "TATCACCAAA", "switch fluorescence ratio": 1.02}, {"sequence": "TATCACGTTC", "switch fluorescence ratio": 1.04}, {"sequence": "TATCACTGGG", "switch fluorescence ratio": 1.06}, {"sequence": "TATCACTTG", "switch fluorescence ratio": 0.976}, {"sequence": "TATCAGACG", "switch fluorescence ratio": 1.02}, {"sequence": "TATCATTATA", "switch fluorescence ratio": 1}, {"sequence": "TATCCAAATT", "switch fluorescence ratio": 1}, {"sequence": "TATCCAGCTG", "switch fluorescence ratio": 1}, {"sequence": "TATCCCCTTC", "switch fluorescence ratio": 1.03}, {"sequence": "TATCCCGCTC", "switch fluorescence ratio": 1.43}, {"sequence": "TATCCGGGC", "switch fluorescence ratio": 1.07}, {"sequence": "TATCCGTGGT", "switch fluorescence ratio": 1.01}, {"sequence": "TATCCTCTAG", "switch fluorescence ratio": 0.995}, {"sequence": "TATCCTTAGA", "switch fluorescence ratio": 0.992}, {"sequence": "TATCGAGCAC", "switch fluorescence ratio": 1.4}, {"sequence": "TATCGATCCG", "switch fluorescence ratio": 0.989}, {"sequence": "TATCGCAGCT", "switch fluorescence ratio": 1.21}, {"sequence": "TATCGCTTTT", "switch fluorescence ratio": 1.02}, {"sequence": "TATCGGATCG", "switch fluorescence ratio": 0.963}, {"sequence": "TATCGGCCCT", "switch fluorescence ratio": 1.11}, {"sequence": "TATCGTGCCA", "switch fluorescence ratio": 1.02}, {"sequence": "TATCTAACT", "switch fluorescence ratio": 1.04}, {"sequence": "TATCTAAGGA", "switch fluorescence ratio": 0.987}, {"sequence": "TATCTAGTTT", "switch fluorescence ratio": 1}, {"sequence": "TATCTATGTG", "switch fluorescence ratio": 0.976}, {"sequence": "TATCTATTT", "switch fluorescence ratio": 0.968}, {"sequence": "TATCTCGGCA", "switch fluorescence ratio": 1.12}, {"sequence": "TATCTGGCCG", "switch fluorescence ratio": 1.01}, {"sequence": "TATCTGGTCT", "switch fluorescence ratio": 1.03}, {"sequence": "TATCTTACTT", "switch fluorescence ratio": 1.05}, {"sequence": "TATCTTGAGC", "switch fluorescence ratio": 0.955}, {"sequence": "TATCTTGTA", "switch fluorescence ratio": 1.04}, {"sequence": "TATGAAGTAA", "switch fluorescence ratio": 0.997}, {"sequence": "TATGACATCG", "switch fluorescence ratio": 1.02}, {"sequence": "TATGACCCGG", "switch fluorescence ratio": 1.03}, {"sequence": "TATGACTAGT", "switch fluorescence ratio": 0.987}, {"sequence": "TATGACTATA", "switch fluorescence ratio": 1.07}, {"sequence": "TATGATTGTT", "switch fluorescence ratio": 1.01}, {"sequence": "TATGCAATGG", "switch fluorescence ratio": 2.51}, {"sequence": "TATGCAATTT", "switch fluorescence ratio": 1.02}, {"sequence": "TATGCAGCGC", "switch fluorescence ratio": 1.03}, {"sequence": "TATGCATGC", "switch fluorescence ratio": 1.05}]}]}
